# Experimental data as given in the supplement of paper PMC10037445.
# Values joined by “and” are separate entries in the source; they are usually repeats but may differ in a detail not shown here. Identical values can stand only once. Over roughly 2,900 compounds, “NF-kB SEAP reporter activity, fold change vs agonist alone” has its median near 0.99; the highest 2% begin near 2.6. This is one part of the list.
# What was measured:
# [1] = test system: RAW-Dual; experiment: NF-kB SEAP reporter activity, fold change vs agonist alone; cytotoxicity flag (confluency mask): not cytotoxic; higher = enhanced NF-kB activity
# Outline: (§1)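 Library stock was pin-tooled at 50 nL into 384-well plates of RAW-Dual macrophages (50,000 cells/well, DMEM), followed 1 h later by a PRR agonist, and the cells were kept at 37 °C, 5% CO2. Supernatant collected after 20 hours was read for IRF by QuantiLuc luminescence and for NF-κB by QuantiBlue absorbance at 620 nm. Reporter activity is fold change over agonist-alone wells, and a well counted as cytotoxic when its IncuCyte confluency was below 70% of agonist controls in both mask sets.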
# [2] = test system: RAW-Dual; experiment: NF-kB SEAP reporter activity, fold change vs agonist alone; higher = enhanced NF-kB activity; conditions: library stock concentration (final ~1000-fold dilution): 10 mM
# Outline: as §1
# [3] = test system: RAW-Dual; experiment: NF-kB SEAP reporter activity, fold change vs agonist alone; cytotoxicity flag (confluency mask): cytotoxic (confluency <70% of control); higher = enhanced NF-kB activity
# Outline: as §1
# [4] = agonist: ODN 1826 (TLR9) 0.5 ug/mL
# [5] = agonist: Pam2CSK4 (TLR2/6) 0.1 ug/mL
# [6] = agonist: Pam3CSK4 (TLR2/1) 0.1 ug/mL
# [7] = cytotoxicity flag (confluency mask): not cytotoxic, agonist: Imiquimod (TLR7) […]
# [8] = cytotoxicity flag (confluency mask): not cytotoxic, agonist: MPLA (TLR4) […]
smiles,measurement,setting,value
CC1(c2cc(-c3cncnc3)c(F)cc2F)CCSC(N)=N1 (stereo unspecified) (library stock concentration (final ~1000-fold dilution): 10 mM),NF-kB SEAP reporter activity,[1]; agonist: LPS (TLR4) 0.1 ug/mL,1.1
same,NF-kB SEAP reporter activity,[1]; [4],0.911
same,NF-kB SEAP reporter activity,[1]; [5],1.06
same,NF-kB SEAP reporter activity,[1]; [6],0.994
CC1(c2cc(-c3cncnc3)c(F)cc2F)CCSC(N)=N1 (stereo unspecified),NF-kB SEAP reporter activity,[2]; [7],0.639
same,NF-kB SEAP reporter activity,[2]; [8],0.882
CN1CCCC1CCOC(C)(c1ccccc1)c1ccc(Cl)cc1.O=C(O)/C=C/C(=O)O (stereo unspecified),NF-kB SEAP reporter activity,[2]; [7],1.7
same,NF-kB SEAP reporter activity,[2]; [8],0.942
CN1CCCC1CCOC(C)(c1ccccc1)c1ccc(Cl)cc1.O=C(O)/C=C/C(=O)O (stereo unspecified) (library stock concentration (final ~1000-fold dilution): 10 mM),NF-kB SEAP reporter activity,[1]; agonist: LPS (TLR4) 0.1 ug/mL,1.32
same,NF-kB SEAP reporter activity,[1]; [4],0.754
same,NF-kB SEAP reporter activity,[1]; [5],0.873
same,NF-kB SEAP reporter activity,[1]; [6],0.64
Cc1ccc(S(=O)(=O)NC(=O)NN2CC3CCCC3C2)cc1 (stereo unspecified) (library stock concentration (final ~1000-fold dilution): 10 mM),NF-kB SEAP reporter activity,[1]; agonist: LPS (TLR4) 0.1 ug/mL,1.34
same,NF-kB SEAP reporter activity,[1]; [4],1.02
same,NF-kB SEAP reporter activity,[1]; [5],1.11
same,NF-kB SEAP reporter activity,[1]; [6],1.03
Cc1ccc(S(=O)(=O)NC(=O)NN2CC3CCCC3C2)cc1 (stereo unspecified),NF-kB SEAP reporter activity,[2]; [7],0.878
same,NF-kB SEAP reporter activity,[2]; [8],0.974
Cc1noc(C)c1-c1ccc2[nH]c(=O)n3c2c1OCC3c1ccccn1 (stereo unspecified),NF-kB SEAP reporter activity,[2]; [7],1.5
same,NF-kB SEAP reporter activity,[2]; [8],2.28
Cc1noc(C)c1-c1ccc2[nH]c(=O)n3c2c1OCC3c1ccccn1 (stereo unspecified) (library stock concentration (final ~1000-fold dilution): 10 mM),NF-kB SEAP reporter activity,[1]; agonist: LPS (TLR4) 0.1 ug/mL,1.61
same,NF-kB SEAP reporter activity,[1]; [4],1.67
same,NF-kB SEAP reporter activity,[1]; [5],0.501
same,NF-kB SEAP reporter activity,[1]; [6],1.34
Cc1ccc(NC(=O)c2ccc(CN3CCN(C)CC3)cc2)cc1Nc1nc(-c2cccnc2)cs1 (library stock concentration (final ~1000-fold dilution): 10 mM),NF-kB SEAP reporter activity,[3]; agonist: LPS (TLR4) 0.1 ug/mL,0.472
same,NF-kB SEAP reporter activity,[3]; [4],0.837
same,NF-kB SEAP reporter activity,[3]; [5],0.329
same,NF-kB SEAP reporter activity,[3]; [6],0.721
Cc1ccc(NC(=O)c2ccc(CN3CCN(C)CC3)cc2)cc1Nc1nc(-c2cccnc2)cs1,NF-kB SEAP reporter activity,"[2]; cytotoxicity flag (confluency mask): cytotoxic (confluency <70% of control), agonist: Imiquimod (TLR7) […]",1.06
same,NF-kB SEAP reporter activity,"[2]; cytotoxicity flag (confluency mask): cytotoxic (confluency <70% of control), agonist: MPLA (TLR4) […]",1.44
CN(C)Cc1cccc(N/C(=C2\C(=O)Nc3cc(C(=O)N(C)C)ccc32)c2ccccc2)c1 (library stock concentration (final ~1000-fold dilution): 10 mM),NF-kB SEAP reporter activity,[1]; agonist: LPS (TLR4) 0.1 ug/mL,1.89
same,NF-kB SEAP reporter activity,[1]; [4],0.401
same,NF-kB SEAP reporter activity,[1]; [5],0.496
same,NF-kB SEAP reporter activity,[1]; [6],0.864
CN(C)Cc1cccc(N/C(=C2\C(=O)Nc3cc(C(=O)N(C)C)ccc32)c2ccccc2)c1,NF-kB SEAP reporter activity,[2]; [7],0.914
same,NF-kB SEAP reporter activity,[2]; [8],1.4
O=C(Nc1cc(C(F)(F)F)ccc1N1CCCCC1)c1ccncc1 (library stock concentration (final ~1000-fold dilution): 10 mM),NF-kB SEAP reporter activity,[1]; agonist: LPS (TLR4) 0.1 ug/mL,0.802
same,NF-kB SEAP reporter activity,[1]; [4],0.875
same,NF-kB SEAP reporter activity,[1]; [5],0.764
same,NF-kB SEAP reporter activity,[1]; [6],0.771
O=C(Nc1cc(C(F)(F)F)ccc1N1CCCCC1)c1ccncc1,NF-kB SEAP reporter activity,[2]; [7],0.957
same,NF-kB SEAP reporter activity,[2]; [8],1.01
COc1cc2nc(N3CCN(C(=O)c4ccco4)CC3)nc(N)c2cc1OC,NF-kB SEAP reporter activity,[2]; [7],2
same,NF-kB SEAP reporter activity,[2]; [8],1.41
COc1cc2nc(N3CCN(C(=O)c4ccco4)CC3)nc(N)c2cc1OC (library stock concentration (final ~1000-fold dilution): 10 mM),NF-kB SEAP reporter activity,[1]; agonist: LPS (TLR4) 0.1 ug/mL,1.63
same,NF-kB SEAP reporter activity,[1]; [4],1.73
same,NF-kB SEAP reporter activity,[1]; [5],1.07
same,NF-kB SEAP reporter activity,[1]; [6],1.28
O=c1cc(-c2ccccc2)oc2cc(OC3OC(CO)C(O)C(O)C3O)c(O)c(O)c12 (stereo unspecified) (library stock concentration (final ~1000-fold dilution): 10 mM),NF-kB SEAP reporter activity,[1]; agonist: LPS (TLR4) 0.1 ug/mL,1.33
same,NF-kB SEAP reporter activity,[1]; [4],0.918
same,NF-kB SEAP reporter activity,[1]; [5],1.05
same,NF-kB SEAP reporter activity,[1]; [6],1.25
O=c1cc(-c2ccccc2)oc2cc(OC3OC(CO)C(O)C(O)C3O)c(O)c(O)c12 (stereo unspecified),NF-kB SEAP reporter activity,[2]; [7],0.869
same,NF-kB SEAP reporter activity,[2]; [8],0.993
CC(=O)OC12COC1CC(O)C1(C)C(=O)C(O)C3=C(C)C(OC(=O)C(O)C(NC(=O)OC(C)(C)C)c4ccccc4)CC(O)(C(OC(=O)c4ccccc4)C21)C3(C)C (stereo unspecified) (library stock concentration (final ~1000-fold dilution): 10 mM),NF-kB SEAP reporter activity,[1]; agonist: LPS (TLR4) 0.1 ug/mL,1.2
same,NF-kB SEAP reporter activity,[1]; [4],0.995
same,NF-kB SEAP reporter activity,[1]; [5],1.02
same,NF-kB SEAP reporter activity,[1]; [6],0.841
CC(=O)OC12COC1CC(O)C1(C)C(=O)C(O)C3=C(C)C(OC(=O)C(O)C(NC(=O)OC(C)(C)C)c4ccccc4)CC(O)(C(OC(=O)c4ccccc4)C21)C3(C)C (stereo unspecified),NF-kB SEAP reporter activity,[2]; [7],1.14
same,NF-kB SEAP reporter activity,[2]; [8],1.24
Brc1ccc(CCCCn2ccnc2)cc1 (library stock concentration (final ~1000-fold dilution): 10 mM),NF-kB SEAP reporter activity,[1]; agonist: LPS (TLR4) 0.1 ug/mL,0.672 and 0.736
same,NF-kB SEAP reporter activity,[1]; [4],0.566 and 0.595
same,NF-kB SEAP reporter activity,[1]; [5],0.493 and 0.552
same,NF-kB SEAP reporter activity,[1]; [6],0.585 and 0.645
COC1C(=O)C2(C)C(OC)CC3OCC3(OC(C)=O)C2C(OC(=O)c2ccccc2)C2(O)CC(OC(=O)C(O)C(NC(=O)OC(C)(C)C)c3ccccc3)C(C)=C1C2(C)C (stereo unspecified) (library stock concentration (final ~1000-fold dilution): 10 mM),NF-kB SEAP reporter activity,[1]; agonist: LPS (TLR4) 0.1 ug/mL,1.71
same,NF-kB SEAP reporter activity,[1]; [4],1.2
same,NF-kB SEAP reporter activity,[1]; [5],1.01
same,NF-kB SEAP reporter activity,[1]; [6],0.912
COC1C(=O)C2(C)C(OC)CC3OCC3(OC(C)=O)C2C(OC(=O)c2ccccc2)C2(O)CC(OC(=O)C(O)C(NC(=O)OC(C)(C)C)c3ccccc3)C(C)=C1C2(C)C (stereo unspecified),NF-kB SEAP reporter activity,[2]; [7],1.57
same,NF-kB SEAP reporter activity,[2]; [8],1.25
COc1ccc(C2OCC3C(c4cc(OC)c(OC)c(OC)c4)OCC23)cc1OC (stereo unspecified),NF-kB SEAP reporter activity,[2]; [7],0.813
same,NF-kB SEAP reporter activity,[2]; [8],1.03
COc1ccc(C2OCC3C(c4cc(OC)c(OC)c(OC)c4)OCC23)cc1OC (stereo unspecified) (library stock concentration (final ~1000-fold dilution): 10 mM),NF-kB SEAP reporter activity,[1]; agonist: LPS (TLR4) 0.1 ug/mL,1.2
same,NF-kB SEAP reporter activity,[1]; [4],1
same,NF-kB SEAP reporter activity,[1]; [5],1.01
same,NF-kB SEAP reporter activity,[1]; [6],1.71
